# Source: the supplement of paper PMC3334620
# In all, about 33,000 sequences were measured (“E-score (-0.5 to 0.5)”: median about -0.011, highest 2% from about 0.28 on). The list shows a part of the results.
# Biological target: T1, Gcr1 (UniProt P07261)
# T1 sequence: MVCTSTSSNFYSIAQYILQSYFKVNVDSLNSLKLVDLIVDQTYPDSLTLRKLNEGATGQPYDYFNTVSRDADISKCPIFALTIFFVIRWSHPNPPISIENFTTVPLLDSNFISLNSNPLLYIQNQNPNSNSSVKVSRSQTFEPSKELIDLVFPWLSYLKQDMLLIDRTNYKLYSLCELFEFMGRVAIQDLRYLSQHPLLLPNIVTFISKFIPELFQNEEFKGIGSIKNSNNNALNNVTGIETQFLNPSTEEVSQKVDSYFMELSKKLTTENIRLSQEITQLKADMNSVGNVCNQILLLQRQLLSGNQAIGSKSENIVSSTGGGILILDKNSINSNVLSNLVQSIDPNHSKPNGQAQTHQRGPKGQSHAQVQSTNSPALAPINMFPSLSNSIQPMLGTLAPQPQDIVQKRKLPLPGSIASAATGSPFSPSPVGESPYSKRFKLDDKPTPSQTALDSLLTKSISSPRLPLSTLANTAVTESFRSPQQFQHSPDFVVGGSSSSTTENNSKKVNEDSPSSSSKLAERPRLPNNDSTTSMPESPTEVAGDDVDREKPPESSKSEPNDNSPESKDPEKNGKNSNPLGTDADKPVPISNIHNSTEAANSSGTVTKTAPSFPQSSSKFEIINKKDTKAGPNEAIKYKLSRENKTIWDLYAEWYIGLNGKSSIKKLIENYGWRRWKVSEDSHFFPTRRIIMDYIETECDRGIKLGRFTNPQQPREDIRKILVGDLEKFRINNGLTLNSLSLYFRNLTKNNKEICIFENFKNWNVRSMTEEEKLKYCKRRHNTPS
# Experiment: PBM E-score (8-mer binding enrichment) (E-score (-0.5 to 0.5)); higher = stronger / more preferred TF binding; most listed sequences are background and not binding sites
# Settings: protein concentration: 100 nM; construct: GST-full length
# Method in brief: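 For each ungapped eight-base word taken together with its reverse complement, the Universal PBM Analysis Suite assigned an E-score. Binding data came from GST-tagged yeast transcription factors, applied at about 100-200 nM, on universal all-10-mer Agilent arrays made double-stranded by primer extension. Fluorescent anti-GST marked bound protein, and scans were normalised with masliner.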
row,Sequence,PBM E-score
1,CATCGTAA,-0.0596
2,GGTCATCA,-0.22
3,ACTCACGC,-0.114
4,AGGTGTCC,0.184
5,AAGAAAGT,0.0414
6,AACCGTTA,-0.348
7,GACCCATA,0.155
8,GATAATGA,0.0431
9,AAATGCGC,0.0318
10,GTGCAATA,0.128
11,AGACAATG,0.0145
12,AACAGGAC,0.162
13,AACCGCCG,0.00829
14,AGTAAAGC,-0.165
15,TCCTTTCA,0.0522
16,ACGATCGG,-0.065
17,CCTGAGAC,-0.0674
18,CGCCGTTC,-0.165
19,GAGCTACA,0.0502
20,CATATATA,0.132
21,AGGGACCC,-0.0366
22,AGACCAGC,-0.027
23,ACTCCGTA,-0.221
24,CGGACGAC,-0.0334
25,ATATGTAA,0.115

row,Sequence,PBM E-score
1,ATAATGGG,0.326
2,CAAGATAA,0.032
3,CAAGATGA,0.0382
4,ACCCAAGG,-0.0329
5,TAACGGGA,-0.0444
6,TATCAGCA,0.182
7,ATCGACTA,0.0376
8,CAAGTTCG,-0.0211
9,CTGTAATC,-0.126
10,AGAGATCA,-0.25
11,ATCGAAAT,-0.0811
12,ACGGAACT,-0.249
13,ACCTAAAG,0.178
14,GTCAAGAC,-0.167
15,CCAAACCG,-0.187
16,ATGCGCCA,-0.0816
17,AGACGTTC,-0.0127
18,ATCTGGGC,0.11
19,ATTCTGCA,0.045
20,GCTCCGAC,-0.0658
21,AGCGCGAT,0.0213
22,ATTGTGGG,0.166
23,GCAGTCCA,0.0322
24,ACGGTTCC,0.0629
25,GACCGCAC,-0.00683

row,Sequence,PBM E-score
1,CTTATCGC,0.0894
2,TGGCACCA,0.321
3,CTAATGCA,-0.11
4,ATAAACCG,-0.241
5,CACGTCTC,-0.0829
6,GGGCGCCC,0.459
7,CGTCGGAG,-0.0234
8,CATGCTAA,-0.0114
9,GACGCTCC,0.278
10,GTAGCCGA,0.123
11,CACCTGCA,-0.222
12,ACAGACGC,0.227
13,ACCCTTTC,-0.208
14,GAACGTGA,-0.256
15,GCCTCGTA,0.0832
16,GAATAACC,0.0068
17,ATGCTGAG,-0.0367
18,CAACGCAG,-0.0728
19,AACCGACC,-0.208
20,ACACACGG,0.065
21,GCCTGAAA,0.111
22,GCGCACCC,-0.0278
23,AGCGATGA,0.0633
24,ATGAGAAA,0.0875
25,TAAGACGA,-0.189

row,Sequence,PBM E-score
1,CAGGTTTA,0.127
2,CCGCCTGA,0.0374
3,ATGAGCAT,-0.269
4,ACTGGTCT,0.0339
5,CGCAGTTA,0.15
6,AATAAGCC,-0.0577
7,CGGGACCG,-0.00477
8,GAATCACC,-0.12
9,GTATCGCA,-0.00444
10,CCCGCACG,-0.0595
11,ACCTAGGT,-0.0409
12,AGTGAAAA,0.0932
13,CCGCTGAC,0.0129
14,CAGATATC,-0.0224
15,ACGGTGCC,0.276
16,ACAAAGTC,-0.195
17,AGTGTCAA,-0.0244
18,ACTAGACT,-0.00689
19,GATTACCA,-0.04
20,AAAGTAGT,-0.0261
21,CATTAGGG,0.0812
22,AGACGCCT,0.327
23,ACGTAGTG,0.0731
24,AGAAACAG,0.0922
25,CAGAGTGG,0.0919

row,Sequence,PBM E-score
1,ATCCCAAA,0.275
2,TCAATCGA,-0.0191
3,CCTACTAC,-0.0926
4,ATTGCCCC,-0.111
5,CCAGGCCC,-0.171
6,AACTACTA,0.288
7,GCGTCAGA,-0.0739
8,GCCGATTA,0.0443
9,ACATCACA,-0.173
10,CTGACAAG,-0.0579
11,GGAACCCC,0.394
12,CTGTCAAG,0.0757
13,CCTCAAAA,0.195
14,GCTTTACC,-0.157
15,ATGAGTAC,0.0538
16,CCTAGGTC,-0.17
17,CCTCGTAC,0.0467
18,AACTTTTA,0.249
19,TAACTGGA,0.225
20,GCCGTGCA,-0.047
21,GGCCTACC,-0.171
22,ATCAAAAG,0.0248
23,AGGCCAGG,-0.25
24,CTAATATA,0.132
25,AAGACGCC,0.349

row,Sequence,PBM E-score
1,AACTTACG,0.0758
2,CAGGAAAC,0.0542
3,GTACTATA,-0.0299
4,CCGAGACC,0.125
5,TTAATCAA,-0.0296
6,AAATCCGG,0.00044
7,GGGAAACC,0.165
8,GAACCGAA,0.0422
9,GTGAAAAC,-0.0762
10,AGCGAAGC,-0.0655
11,CAAAAGCA,0.0707
12,AAGTTGAC,0.0421
13,GGAGCAAC,-0.122
14,ACAGCGCT,-0.114
15,CATCACCC,0.064
16,CGAGGGGA,-0.0334
17,CGTTAATC,0.023
18,ATCCCCCG,0.175
19,CTAAACAA,0.124
20,ACCAACCT,-0.0617
21,GGTGATAA,0.139
22,CGGGGCTC,-0.109
23,AGGTAAAT,0.1
24,CCACTTGA,0.138
25,ACAGTCTA,-0.103

row,Sequence,PBM E-score
1,TAGCACTA,0.152
2,GGTCAGTA,-0.203
3,GGATGCCA,0.454
4,GGGAATAC,-0.0454
5,GCTATTAC,0.0485
6,ATTCATCG,-0.166
7,ACACTGAG,-0.126
8,CGTGCCGC,-0.241
9,ACTTGAAG,-0.066
10,CAAAACGG,0.0262
11,AAACCGAC,-0.0881
12,GCTCTTCC,-0.111
13,CCTAACCG,-0.00312
14,ATCTCTGA,-0.0114
15,AAAGTGGT,0.167
16,ACACATAC,-0.0338
17,ATCAAGCC,-0.179
18,CTAAATGA,0.0742
19,CCGCGGGC,-0.0944
20,AAGCCCTC,-0.0243
21,TCATAAAA,0.0118
22,ACGGAATG,0.0972
